# Reference: PMC7819943, “Rice protein-binding microarrays: a tool to detect cis-acting elements near promoter regions in rice”
# The other results are listed elsewhere or left out.
# Target: T1, OsWOX13 (Oryza sativa, UniProt Q5QMM3 1-267)
# T1 sequence: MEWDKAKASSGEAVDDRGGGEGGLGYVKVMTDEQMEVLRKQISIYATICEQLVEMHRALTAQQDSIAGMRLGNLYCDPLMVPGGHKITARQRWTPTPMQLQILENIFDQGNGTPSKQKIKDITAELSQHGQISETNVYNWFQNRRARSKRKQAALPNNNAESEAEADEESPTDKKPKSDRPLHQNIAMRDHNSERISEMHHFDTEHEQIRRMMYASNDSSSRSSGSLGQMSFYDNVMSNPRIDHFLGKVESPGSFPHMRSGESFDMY
# Assay: protein-binding microarray (RPBM); PBS, 2% BSA, 51.3 ng/ul salmon testes DNA, 50 uM zinc acetate, 200 nM TF, 25 C, 1 h; high values mean tight binding
# Settings: protein: recombinant; tags: N-terminal polyhistidine and DsRed monomer fusion (pET32a); label: CyDye5-dUTP incorporated in the synthesized complementary strand; 3' TTTTT single-stranded linker to array surface; dsDNA, one strand shown
# How it was run: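 Binding signal is reported as fluorescence intensity per feature (arbitrary units) from an Axon 4000B scanner. Incubation used 200 nM of each Ni–NTA-purified, N-terminally polyhistidine- and DsRed-fused transcription factor from E. coli BL21-CodonPlus on a double-stranded custom Agilent array for 1 h at 25 °C, with 50 µM zinc acetate in the buffer, followed by washing.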
row,Sequence,binding signal
1,AACATTAATTGCAAGTTATGACCTTTCTTTTCCCCTAATACGGAGTCACCTAGTGCAG,26400 fluorescence intensity (a.u.)
2,TTTAATGGTTAGAGTCATGATTGGCTTAGGTACTGTGAGACGGAGTCACCTAGTGCAG,3440 fluorescence intensity (a.u.)
3,ATTATTCCGTGTATGTTGATTATCTCATCTTCTCCTAGGGCGGAGTCACCTAGTGCAG,3250 fluorescence intensity (a.u.)
4,CAAAATCCTGATAATGATCGATTGTCCCCGCTATGAACACCGGAGTCACCTAGTGCAG,3200 fluorescence intensity (a.u.)
5,GGAAACTAACATGTTAATTAGCACATAAGTAATTAAGTATCGGAGTCACCTAGTGCAG,32300 fluorescence intensity (a.u.)
6,AATAATTGAATTGATTCCATATTTATGGAATTCATGTGTCCGGAGTCACCTAGTGCAG,49700 fluorescence intensity (a.u.)
7,TCTGCAAATTAATAATTGAGCCGTCCATTTCACCATTAGACGGAGTCACCTAGTGCAG,29300 fluorescence intensity (a.u.)
8,ATTATTCTTCTATCAATTATCTCCTCCCAAATCGTGTGATCGGAGTCACCTAGTGCAG,20900 fluorescence intensity (a.u.)
9,CCGTCAATATAATTGAAATAAAGGAGAACTAGCTATACTTCGGAGTCACCTAGTGCAG,17400 fluorescence intensity (a.u.)
10,TACACCTCTAATTATCCGCTTCACATGCTCGCTCTCTTCTCGGAGTCACCTAGTGCAG,5080 fluorescence intensity (a.u.)
11,GTGACCATCAATTTGTACTTAATAGGTGGATCCATTATTTCGGAGTCACCTAGTGCAG,10800 fluorescence intensity (a.u.)
12,GCTAATTTATACAATAGTTGCTTACTATAGAATTAATGCACGGAGTCACCTAGTGCAG,27200 fluorescence intensity (a.u.)
13,ATTAAGAATTGACGACTAGCTAGCTAGTATATATGTGTGTCGGAGTCACCTAGTGCAG,3250 fluorescence intensity (a.u.)
14,GTTCAAATTGGATCGTGACGAGGAAGCCTTTTGCCGTCGTCGGAGTCACCTAGTGCAG,30200 fluorescence intensity (a.u.)
15,AGAATAATTAGCCATAAATGTAAATGCATGTGTCAAATCTCGGAGTCACCTAGTGCAG,13200 fluorescence intensity (a.u.)
16,TTTGATATGTTTGAATCAAACTGATTTAGTTTTCACATTTCGGAGTCACCTAGTGCAG,6380 fluorescence intensity (a.u.)
17,TACATGATTTTGTTTTCCATATTATTACCAGTATCATATGCGGAGTCACCTAGTGCAG,15600 fluorescence intensity (a.u.)
18,ATTTTATAATTAGCTGTGTAGCTCCATCGTTTGGCTTATACGGAGTCACCTAGTGCAG,10900 fluorescence intensity (a.u.)
19,TTAATTAGAGCAAATTAAGATAATGTAGCCTTCAAATTTCCGGAGTCACCTAGTGCAG,21400 fluorescence intensity (a.u.)
20,CTCAATTATAATCATGTTCGATTTTCAAATCTCAACGATACGGAGTCACCTAGTGCAG,9770 fluorescence intensity (a.u.)
21,TCAACTCCATCTGGTCATCAATCACTCTACCTTCATCTTCCGGAGTCACCTAGTGCAG,5420 fluorescence intensity (a.u.)

row,Sequence,binding signal
1,AAGTAATTGAAATGGTTGAATGGTTCATACAATTCAATCACGGAGTCACCTAGTGCAG,17400 fluorescence intensity (a.u.)
2,CAATGATAAATGACAGTCTTACCCTTTCATCTCCCCTTCACGGAGTCACCTAGTGCAG,7210 fluorescence intensity (a.u.)
3,GCCAACTAATCACTGATAATGGGCTCACTGCAATTGCAAGCGGAGTCACCTAGTGCAG,15000 fluorescence intensity (a.u.)
4,ATCTTACCTTGATTGTAAATTTGTGATCTGCAATGCCCATCGGAGTCACCTAGTGCAG,25700 fluorescence intensity (a.u.)
5,CCGTAAATTAAGCCACGTTCTAGAGGCGCATAACGTCAAGCGGAGTCACCTAGTGCAG,4460 fluorescence intensity (a.u.)
6,CATAAATCATTTCTTTTGTTTTCAAACTAAGCATATTTGACGGAGTCACCTAGTGCAG,4540 fluorescence intensity (a.u.)
7,CCATAGATTGCAAACTTATATAACCTCGCTCGCACGGAGACGGAGTCACCTAGTGCAG,11000 fluorescence intensity (a.u.)
8,GCTGATTAAGAAGGAGACCTCTCGGTTGATGCTAGCTGAACGGAGTCACCTAGTGCAG,11500 fluorescence intensity (a.u.)
9,ACACAAGATTAATTAAGGAGAGGTGAGTTAGTATAGAGGTCGGAGTCACCTAGTGCAG,5940 fluorescence intensity (a.u.)
10,ACTAAAATTATATTAGATACTTTCTTGGTATGGATTAATGCGGAGTCACCTAGTGCAG,5510 fluorescence intensity (a.u.)
11,CGCGCATCAATCTCCATCCTACCACCAGCAATGATGCGGGCGGAGTCACCTAGTGCAG,3800 fluorescence intensity (a.u.)
12,TTTTAATAAACATACTCAATGACCACGCACTTCTGCTGTACGGAGTCACCTAGTGCAG,3410 fluorescence intensity (a.u.)
13,AGATAATTGCTTATGGAACAAGTTTTCTGTAGTAGTAGATCGGAGTCACCTAGTGCAG,31400 fluorescence intensity (a.u.)
14,AATAATTAGTTTCTCGTTCATTGCAAATTGCAGCGAGATTCGGAGTCACCTAGTGCAG,19000 fluorescence intensity (a.u.)
15,TCTTGATCCTGATGAAATTGAAGAAGAGCAGCGTGAGAGGCGGAGTCACCTAGTGCAG,5840 fluorescence intensity (a.u.)
16,TTTGACGTGACAAAATCGGTGCGTGTCGTGGTGGGGCCCGCGGAGTCACCTAGTGCAG,6590 fluorescence intensity (a.u.)
17,TCTTCATGCCACATAATTGGCTGCTCCTTTAGGGCACTCACGGAGTCACCTAGTGCAG,4570 fluorescence intensity (a.u.)
18,TATTGATTGTATGATTTGGAGAAAATCCAACCTCCGCCCCCGGAGTCACCTAGTGCAG,51500 fluorescence intensity (a.u.)
19,ATATCATATTAATTTATTTCAAGTTTGTTTGGTACGTAAACGGAGTCACCTAGTGCAG,5060 fluorescence intensity (a.u.)
20,GAGGTGGGATAATTATTTTGCTATTGTATAAACGAATGATCGGAGTCACCTAGTGCAG,5240 fluorescence intensity (a.u.)
21,CAAGATGTTAATTGTTAAATGGGTCACTTCCTCATCTCTCCGGAGTCACCTAGTGCAG,27700 fluorescence intensity (a.u.)
